This passage reports activation results from PubChem BioAssay AID1346428 (National Center for Advancing Translational Sciences (NCATS), 2018).

Each structure is given as a SMILES string. Where “and” joins values, the source holds several entries; their conditions need not be identical. Equal values may be shown once. Screen size: about 48,000 compounds; about 1,200 (2.5%) were called active. Inconclusive results (about 2%) are left out.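 The calls were made as follows: active = activation of at least 60% and not above a set upper limit (about 1 call in 100 departs from these limits); inconclusive = activation of 40% to 60%, or above that upper limit; inactive = activation under 40%.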 The list shows a part of the results.

UniProt O75388, sequence (O75388 whole entry, looked up, the tested form may be a part): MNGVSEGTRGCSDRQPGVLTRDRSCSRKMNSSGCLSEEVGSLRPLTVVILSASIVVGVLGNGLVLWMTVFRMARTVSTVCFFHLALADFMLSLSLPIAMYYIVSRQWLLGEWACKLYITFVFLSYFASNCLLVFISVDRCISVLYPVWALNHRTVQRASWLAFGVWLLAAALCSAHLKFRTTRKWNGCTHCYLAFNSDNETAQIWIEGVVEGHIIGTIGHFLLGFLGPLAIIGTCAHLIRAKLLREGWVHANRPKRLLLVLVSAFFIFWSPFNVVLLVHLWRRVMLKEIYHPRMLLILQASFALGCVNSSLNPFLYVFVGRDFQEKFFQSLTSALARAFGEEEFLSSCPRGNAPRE

This test deals with Probable G-protein coupled receptor 32 (Homo sapiens) (UniProt O75388). Description: qHTS for Agonists of Human Resolvin D1 Receptor DRV1. Also: 0% is about no effect. The note with it: CHO-K1 GPR32 beta-arrestin PathHunter luminescence, 90 min; at 76.9 µM; hits give high values; zero percent set by DMSO-only wells. The method, boiled down:
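Agonism was scored as beta-arrestin recruitment to ProLink-fused GPR32 in stably transfected CHO-K1 cells, giving a chemiluminescent beta-Gal signal; compounds were incubated 90 min at 37 °C.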
Turning to `CCc1nn(CCCC(=O)N2CCN(c3cccc(OC)c3)CC2)c(=O)c2cc3occc3n12`, the activation was inactive: 4.24%.
As for `COC(=O)C1CCN(S(=O)(=O)c2ccc(N3CCCCS3(=O)=O)cc2)CC1`, the activation is inactive: 14.3%.
The figure for `COC(=O)c1cc(C)nc2c1c(=O)nc(SCc1ccccc1C)n2C1CC1` is inactive: -22%.
On to `O=C1[C@H]2CCCC[C@H]2C(=O)N1CCCCN1CCN(c2nsc3ccccc23)CC1`, for which the activation was inactive: -53.9%.
On to `COc1ccc(CCN2C(=O)c3[nH]nc(-c4ccccc4O)c3C2c2ccc(OC)c(OC)c2)cc1` (stereo not given), for which the activation is inactive: -25.7%.
In the case of `CCOC(=O)c1c(NC(=O)CSc2cn(CCNC(=O)c3c(F)cccc3F)c3ccccc23)sc2c1CCC2`, the activation is inactive: -7.96%.
On to `Cc1ccc(S(=O)Cc2nc(-c3ccc(C(=O)NCc4cccc(C)c4)cc3)oc2C)cc1` (stereo not given), for which the activation was inactive: -6.33%.
Consider `O=C(CCn1nc(-c2ccc(Cl)cc2)ccc1=O)NCCc1ccccc1`, for which the activation was inactive: -6.37%.
Consider `CC(=O)Nc1c(C)nn(-c2ccccc2)c1N1CCC(C(=O)NCc2ccccc2Cl)CC1`, for which the activation was inactive: -6.56%.
On to `CN(C)S(=O)(=O)c1ccc2c(c1)/C(=C/c1cc3c([nH]1)CCCC3)C(=O)N2`, for which the activation was inactive: -40.6%.
As for `O=C(COc1ccccc1Cl)Nc1ccc2nc(SCC(=O)N3CCCC3)sc2c1`, the figure is inactive: -5.84%.
The figure for `CCCn1c(=O)c2sccc2n2c(CCCC(=O)NCc3ccccc3)nnc12` is inactive: 0.437%; for `CCOC(=O)COc1ccc(F)cc1C(=O)c1ccn2nc(-c3ccc(Cl)cc3)cc2n1` it is inactive: -7.69%; for `CCOC(=O)c1noc2ncnc(Nc3cccc(OC)c3)c12` it is inactive: -1.5%.
The figure for `COc1cccc(NC(=O)CSc2nc(-c3ccccc3Cl)nc3c2Cc2c(CO)cnc(C)c2O3)c1` is inactive: 0.281%; for `CCOc1ccc(-n2c(SCC(N)=O)nc3c(oc4ccccc43)c2=O)cc1` it is inactive: -18.4%; for `COc1ccc(-c2cc(-c3ccccc3)nc(SCC(=O)Nc3ccccc3F)c2C#N)cc1` it is inactive: -2.72%.
Turning to `Clc1cccc(Cl)c1NC1=NCCN1`, the activation is inactive: -16.3% and inactive: 2.45%.
For the compound `Nc1ncc(S(=O)(=O)Nc2ccc(F)cc2F)cn1`, the activation is inactive: -7.23%.
Turning to `COc1ccc(C2C=C(c3ccccc3)Nc3nc(NC(=O)/C=C/c4ccccc4Cl)nn32)cc1` (stereo not given), the activation was inactive: -16.3%.
On to `CCc1cnc2c(c1SCC(=O)NCc1ccc(F)cc1)c(=O)n(C)c(=O)n2C`, for which the activation was inactive: -16.2%.
As for `CN(C)c1ccc(N=NS(=O)(=O)O)cc1`, the activation is inactive: -90.2%.
Turning to `Cc1cccc(C(=O)Nc2ccc3nc(SCCOc4ccccc4)sc3c2)c1`, the activation was inactive: 14.1%.
On to `COc1ccc(CCNc2nc(SCc3ccc(Cl)cc3)nc3ccccc23)cc1OC`, for which the activation was inactive: -16.2%.
As for `CCCCCOc1ccccc1/C(=C\SC)n1ccnc1`, the figure is inactive: -64.7%; as for `Nc1c(C(=O)Nc2cccc(F)c2)c2ccccn2c1C(=O)c1ccccc1`, inactive: 11.4%; as for `CCOC(=O)c1c(NC(=O)COc2cccc(C)c2C)sc(C(C)=O)c1C`, inactive: -10.9%.
Consider `COc1ccc(N2CCN(C(c3ccccc3F)c3sc4nc(-c5ccco5)nn4c3O)CC2)cc1` (stereo not given), for which the activation was inactive: 2.21%.
On to `COc1ccc(Cl)cc1NC(=O)Cn1c(=O)c(-c2ccccc2NC(C)=O)nc2ccccc21`, for which the activation was inactive: -5.7%.
With `Cc1ccc(C)c(Cn2c(C(=O)O)c(CNCc3cccs3)c3ccccc32)c1`, the activation is inactive: -15.3%.
Regarding `COC(=O)c1ccccc1NC(=O)Cn1c(=O)cc(C)c2c(C)nn(C)c21`, the activation is inactive: -7.23%.
Consider `Cc1cc(C)c2c(c1)c(C)cc1nnc(SCC(=O)c3ccc(F)cc3)n12`, for which the activation was inactive: -14.4%.
Take `CCCCC(=O)N1CCc2cc(OC)c(OC)cc2C1COc1ccc(OC)cc1` (stereo not given): the activation is inactive: -4.89%.
As for `COc1ccc(NC(=O)CN2C(=O)COc3ccc(S(=O)(=O)N4CCCCC4)cc32)cc1OC`, the activation is inactive: -17%.
In the case of `CN(C)CCNC(=O)C(=O)NCC(c1ccc2c(c1)OCO2)N1CCOCC1` (stereo not given), the activation is inactive: 2.3%.
As for `Cc1c(C(=O)O)oc2c1-c1nn(Cc3ccc(Cl)cc3)cc1CC2`, the figure is inactive: -24%; as for `Cc1cc(-c2ccccc2)n2nc(-c3ccccc3)cc2n1`, inactive: -33.7%; as for `COc1cccc(CNS(=O)(=O)c2ccc3c(c2)C(C(C)C)C(=O)N3)c1` (stereo not given), active: 75.8%.
For the compound `Cc1ccc(NC(=O)CC2Sc3ccc(C(F)(F)F)cc3NC2=O)cc1` (stereo not given), the activation is inactive: 15%.
Consider `COc1ccccc1C(=O)Nc1c(C(=O)Nc2ccccc2F)oc2ccccc12`, for which the activation is inactive: 0.189%.
`CCOc1ccc(C(c2c(O)cc(C)n(Cc3ccco3)c2=O)N2CCCCC2)cc1` (stereo not given): the activation was inactive: -9.18%.
In the case of `Cc1ccc2cccc(NC(=O)C(C)Oc3ccc(Cl)cc3Cl)c2n1` (stereo not given), the activation was inactive: -30.2%.
Regarding `O=C(Nc1cccc(-c2nc3ccccc3o2)c1)C(F)(F)F`, the activation was inactive: -0.643%.
Regarding `CC(=O)c1ccc(NC(=O)CN(C)S(=O)(=O)c2cnc[nH]2)cc1`, the activation is inactive: 7.37%.
Turning to `COc1ccc(CNC(=O)Nc2cn(CC(C)C)c(=O)c3ccccc23)cc1`, the activation is inactive: -30.1%.
Turning to `Cc1ccn2c(Nc3ccc(C(C)C)cc3)c(-c3cccnc3)nc2c1`, the activation was inactive: 49.4%.
The figure for `CCN1C(=O)c2ccccc2C1Nc1ccc(OCCN2CCCCC2)cc1` (stereo not given) is inactive: 18.2%; for `Cc1cc(C)c(NC(=O)CSc2nncn3c2cc2oc(C)cc23)c(C)c1` it is inactive: -4.87%; for `Cc1ncc(CO)c(C=O)c1O` it is inactive: -18.2%.
As for `Cc1ccc(OCCSc2nc(C)c(Cc3ccccc3)c(=O)[nH]2)cc1`, the figure is inactive: -6.74%; as for `Cc1cc2oc(C(=O)Nc3ccc(S(=O)(=O)N4CCC(C)CC4)cc3)cc(=O)c2cc1C`, inactive: 5.05%; as for `Cc1ccc(-n2nc3c(N4CCC(C(=O)NC5CCCCC5)CC4)nnc(C)c3c2C)cc1`, inactive: 10.2%.
Turning to `COc1ccc(-c2ccc(CNCCCSc3nnnn3C)o2)cc1Cl`, the activation is inactive: -8.66%.
As to `COc1ccc(-n2ncc(C(=O)N3CCN(C(=O)c4ccco4)CC3)c2C2CCN(C(=O)OC(C)(C)C)CC2)cc1`, the activation is inactive: 14.3%.
Turning to `CC(C)Cc1ccc(S(=O)(=O)NCc2nc3cccnc3n2Cc2ccccc2)cc1`, the activation was inactive: -24.6%.
